83 variants from the RNAGym collection of RNA variant scans (doi:10.7554/elife.90254) can be followed below.

Read counts are not given, so values of variants with three or more changes are uncertain.

B1: OR4K15 (parent)
chain: GUUAACGGUCAUAGGCCAUGGAAACUAGGAGCACCAUUUCGCUGCCAGUGAAGAAAUGAACAAAGAAAAUCUGGGCCAGGCAGGCAUCAAAAGAAAUAGUCUUGCGCUCAACCAGAAAGUCUGUAAUCAUUUUAAGGGUA

Variants of B1 are the subject of the data set. The experiment in a line: self-cleavage, relative activity (ratio to wild type); higher = more cleavage; in vitro, sequencing; the parent is a self-cleaving ribozyme.
A23G G41U U122G: the self-cleavage came out at 1.82.
A24G A47G A68G A89G U120C: the self-cleavage amounted to 0.75.
For A24G A33C A56G U102C, the self-cleavage was found to be 1.97.
As to A23G U49C U102A U132A, the self-cleavage came out at 0.72.
For A23G A89C A114G A118G, the self-cleavage was 0.14.
For A23G A33G A125U, the self-cleavage stood at 1.38.
With A23G A54G A68G A118G the figure was 0.59.
In the case of A24C A68U C121U, the self-cleavage was 1.96.
With A23U A33U U37C A56G the figure was 0.86; with A23G A55U A91G A125G, 0.21; with A23G G84A A94C A134U, 0.
On to A23G A69U A91G, for which the self-cleavage came out at 1.17.
For the variant A23U A67G A92G U120C, the self-cleavage worked out at 0.53.
Take A23G A59G A129C: the self-cleavage is 0.97.
For A23G A59G A95U U100C, the self-cleavage is 1.6.
In the case of A23G A54G G74A G93A A118G, the self-cleavage amounted to 0.17.
In the case of A23G A63U A126G, the self-cleavage is 1.08.
Turning to A23G U26C A69G, the self-cleavage came out at 0.92.
In the case of A23G A92G U103C A111G A114G it was 0.04; in that of A23G A64G A90G U103C, 0.08; in that of A23G U37C U38A U39C A82C A92G U139C, 0.1.
For A23G U57C U108C U120C, the self-cleavage is 0.
As to A24C A47C A110U, the self-cleavage is 1.11.
On to A23U A59G A60G A114U, for which the self-cleavage worked out at 0.1.
With A23G A59G A60G the figure was 0.62; with A23G A54U A69G G93A A110G, 0.03; with A23G U39C A51G U131C, 0.53.
In the case of A23G A63G A78G A90G, the self-cleavage worked out at 0.36.
Take A23G A62G A90G: the self-cleavage was determined as 0.69.
With A23G U57C U103C, the self-cleavage amounted to 0.16.
With A23G G28A U43C A94G U122C the figure was 0.43.
Consider A23G U102C A129G, for which the self-cleavage was 1.26.
As to A23U C45G A78U A110G, the self-cleavage is 0.13.
Turning to A23G U37C A67U A94U, the self-cleavage is 1.15.
In the case of A23U U43C U70C A95C it was 0.6.
In the case of A24C U70G A117G it was 1.62; in that of A23G A63G U100A, 1.17; in that of A24G A27U U37C C105A A110G, 0.05.
As to A23G A36C A54G, the self-cleavage was 0.77.
Turning to A23G U37C U70C U108A A117G U139C, the self-cleavage is 0.02.
As for A23G A30G U49C A64U A91G C105A, the self-cleavage stood at 0.04.
In the case of A23G A60G A64G A89G A98U A111G it was 0.1.
For the variant A24G A33C A60G A78G A116G, the self-cleavage turned out to be 0.27.
On to A23G U39C A52G A66G A78U A98G U130C, for which the self-cleavage was 0.25.
For the variant A23U U57C A114C, the self-cleavage was 0.01.
For A23G A96G U100C, the self-cleavage stood at 1.42.
With A23G U43C A51G A66U A69G the figure was 1.18; with A23G A36U U57A U120C, 1.02.
Turning to A23G A55U U103C, the self-cleavage worked out at 0.34.
Consider A23G U38C U130C, for which the self-cleavage came to 0.17.
On to A23U G50A U57C A66U A90G, for which the self-cleavage stood at 1.05.
On to A23G U49C U131C, for which the self-cleavage worked out at 1.16.
With A24G A51G A60G, the self-cleavage worked out at 0.6.
As for A23G A27G A82G A95G, the self-cleavage was determined as 0.85.
On to A23G A33G A67G, for which the self-cleavage came to 1.02.
On to A23G U49C U57G A86G, for which the self-cleavage turned out to be 0.67.
Regarding A23G A47U A89G U139C, the self-cleavage amounted to 0.77.
As to A24C U70C U131C, the self-cleavage turned out to be 1.11.
In the case of A23G U26A A135U, the self-cleavage was 1.47.
In the case of A23G A89G A90G it was 1.13; in that of A23G U70C A90G U102C, 0.54.
Turning to A23G U103C A111G, the self-cleavage worked out at 0.01.
In the case of A23U A33G U38C A98U it was 1.46; in that of A23G A59G A114G, 0.13; in that of A24C U108C A118G, 0.
For the variant A23U U38C A62G U122C, the self-cleavage is 1.34.
For A23G U43C A64G A90G, the self-cleavage amounted to 0.5.
In the case of A24C A68G A98G U102C U133A, the self-cleavage was 2.01.
On to A24C A63G U100C, for which the self-cleavage was 1.89.
With A23G U39C U122C the figure was 0.94; with A23U A89G G119A, 2.02.
For the variant A23G A52U G106A, the self-cleavage worked out at 0.08.
Consider A23G G44U A52U A89G A91G A98G, for which the self-cleavage was determined as 1.05.
Turning to A24G A30G A82G A86G A117G, the self-cleavage came out at 0.16.
A23G A59U A62U U72A A94G U103C A126G: the self-cleavage was 0.07.
With A23G U57C A111G A129G the figure was 0.01; with A24C U70C U97A U122C, 0.33.
On to A24C A33G A47G U87C A92G G136A, for which the self-cleavage amounted to 0.45.
As for A23G A60G A98G A116G, the self-cleavage worked out at 0.08.
As for A23G U38A A89G C109A, the self-cleavage worked out at 0.43.
For the variant A23G A59U A82U U130C, the self-cleavage amounted to 0.12.
Take A23G A110G A126G: the self-cleavage turned out to be 0.15.
A24C A33U A60G A90C: the self-cleavage is 0.46.
